The record followed here is patent US20130122005A1, “ANTICANCER COMBINATION THERAPY” (priority 2011, published 2013).

Experiment [1] addresses T1, rat IGF-2 (Rattus norvegicus, UniProt P01346).
T1 construct: insulin-like growth factor-2 (IGF-2; a 67 amino-acid polypeptide); purchased IBT AAU100
In words: Direct immunosorbent assay (ELISA), rat IGF-2. The conditions noted are these: up to 50 ng/ml. It counts as binding. On the procedure:
(§1) Fully human IgG1 antibodies that bound with high affinity to IGF-1 are also tested for binding to human IGF-1 in direct immunosorbent assays (ELISA). Assays are performed by coating human IGF-1 (R&D Systems, No. 291-G1) to 96-well Maxisorb plates at a concentration of 0.5 μg/ml overnight at 4° C. (100 μl/well). Coating buffer alone is used as a control for unspecific binding. Wells are then washed once with washing buffer (1×TBS-T) and residual binding sites are blocked with 200 μl blocking buffer for 1 hour at room temperature on an orbital shaker followed by a further wash cycle. Serial three-fold dilutions of each test antibody in blocking buffer are prepared directly on the coated plates. Typical concentrations used are 50, 16.6, 5.6, 1.8, 0.6, 0.2, and 0.07 ng/ml. Blocking buffer alone is used as a positive control. The plates are then incubated for 2 hours at room temperature with agitation. After three wash cycles 100 μl/well of HRPO-conjugated anti-human IgG secondary reagent (Jackson ImmunoResearch Inc.) diluted in blocking buffer is added to all wells. After 2 hours incubation at room temperature with agitation the plates are washed three-times and 100 μl/well of TMB substrate solution (equal amounts of solution A and B) are pipetted into all wells. The plates are incubated for 10-20 min at RT with agitation and then the reaction is stopped by addition of 100 μl/well 1 M phosphoric acid. The absorbance is measured at a wavelength of 450 nm (reference 650 nm).
(§2) Binding of the fully human IGF-1 binding IgG1 antibodies to mouse IGF-1 (R&D Systems, No. 791-MG), rat IGF-1 (IBT, No. RU100), human IGF-2 (GroPep, No. FM001), mouse IGF-2 (R&D Systems, No. 792-MG), rat IGF-2 (IBT, No. AAU100), and human insulin (Roche) is also tested as described above for human IGF-1 (except that the concentration of human insulin used for coating is 3 μg/ml).

For experiment [2], the target named is T2, human insulin (Homo sapiens, UniProt P01308).
T2 construct: and human insulin (Roche) is also tested as described above for human IGF-1; purchased Roche
Description: Direct immunosorbent assay (ELISA), human insulin. It counts as binding. The conditions noted are these: highest concentration tested 50 ng/ml. How it is done:
as §1, §2
(In an ELISA, binding on a coated surface is turned into a signal by an enzyme label.)

For experiment [3], the target named is T3, mouse IGF-2 (Mus musculus, UniProt P09535).
T3 construct: insulin-like growth factor-2 (IGF-2; a 67 amino-acid polypeptide)
Description: Direct immunosorbent assay (ELISA), mouse IGF-2. The class given is binding. The conditions noted are these: up to 50 ng/ml. How it is done:
as §1, §2

For experiment [4], the target named is T4, human IGF-2 (Homo sapiens, UniProt P01344).
T4 construct: insulin-like growth factor-2 (IGF-2; a 67 amino-acid polypeptide)
In words: Direct immunosorbent assay (ELISA), human IGF-2. It counts as binding. The conditions noted are these: up to 50 ng/ml. On the procedure:
as §1, §2

Experiment [5] concerns the target T5, mouse IGF-1 (Mus musculus, UniProt P05017).
T5 construct: Insulin-like growth factor-1 (IGF-1; a 70 amino-acid polypeptide); purchased R&D Systems 791-MG
Description: Direct immunosorbent assay (ELISA), mouse IGF-1. It counts as binding. The conditions noted are these: up to 50 ng/ml. On the procedure: as §1, §2

For experiment [6], the target named is T6, rat IGF-1 (Rattus norvegicus, UniProt P08025).
T6 construct: Insulin-like growth factor-1 (IGF-1; a 70 amino-acid polypeptide); purchased IBT RU100
In words: Direct immunosorbent assay (ELISA), rat IGF-1. The conditions noted are these: up to 50 ng/ml. It counts as binding. On the procedure: as §1, §2

Experiment [7] deals with PTEN. Description: Western blot of PTEN levels in SK-ES-1 cells. It counts as cell-based. The conditions noted are these: 100 nM, 24 hours. On the procedure: (§3) 24 hours later the cells are lysed and the cell lysate frozen after the protein concentration is determined by Bradford assay. Western blotting is performed by applying 30 µg of protein lysates to an SDS PAGE gel (BioRad) and the gel blotted on a Citerian gel blotting sandwich. Western blots are incubated overnight with a rabbit anti-beta actin (control) antibody, a rabbit anti-PTEN antibody (Cell Signaling #9559), or a rabbit anti-phospho-pAKT antibody (Cell Signaling #4060), at 1:5000 (anti-beta actin), 1:1000 (anti-PTEN), or 1:2000 (anti-phosphoAKT) dilutions in 1% milk powder. Following washing in TBS an anti-rabbit IgG HRPO-conjugated secondary antibody (Amersham) is applied for 1 hour and after further washes in TBS antibody reactivity is detected by ECL and captured on Hyperfilm (Amersham).

The test system of experiment [8] is phosphorylation of AKT. In words: Western blot of phosphorylated AKT in SK-ES-1 cells. It counts as cell-based. The conditions noted are these: 100 nM, 24 hours. On the procedure:
as §3

Experiment [9] has as its system total murine IGF-1. Description: Effect on total murine serum IGF-1 levels. It counts as in vivo, athymic NMRI nude mice. The conditions noted are these: mice, single i.v. doses 3.13-25 mg/kg, 24 hours post administration. How it is done: (§4) Single intravenous (bolus) administrations of 25, 12.5, 6.25, and 3.13 mg/kg of test IGF antibody are given to female athymic NMRI nude mice, 6-8 weeks old (n=5). Single 10 minute intravenous administrations of 30, 100, 200 mg/kg of antibody 60819 are given to male and female Wistar Han rats, 6-8 weeks old (n=4 male, 4 female). Prior to antibody treatment and 24 hours post administration a blood sample is taken, serum collected, and total murine or rat IGF-1 levels determined using the OCTEIA rat/mouse total IGF-1 immunocytometric assay. The assay is performed according to the manufacturer's instructions, absorbance is measured at 450 nm and evaluated using the SoftMax Pro software. A standard curve is used to determine the serum concentration of total IGF-1 in ng/ml. Statistical analysis is performed using the GraphPad Prism software.

Experiment [10] concerns total rat IGF-1. In words: Effect on total rat serum IGF-1 levels. The class given is in vivo, Wistar Han rats. The conditions noted are these: rats, single 10 minute i.v. 30, 100, 200 mg/kg, 24 hours post administration. How it is done: as §4

T1 sequence (P01346 25-91 limits assumed): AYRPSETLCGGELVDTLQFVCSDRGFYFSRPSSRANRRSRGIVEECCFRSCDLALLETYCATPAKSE
T2 sequence (P01308 25-54 limits assumed): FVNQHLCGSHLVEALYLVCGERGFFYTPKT
T2 sequence (P01308 90-110 limits assumed): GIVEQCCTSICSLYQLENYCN
T5 sequence (P05017 49-118 limits assumed): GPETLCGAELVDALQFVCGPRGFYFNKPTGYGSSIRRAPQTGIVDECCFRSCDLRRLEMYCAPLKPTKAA
T4 sequence (P01344 25-91 limits assumed): as the sequence (P01346 25-91 limits assumed) above, with S22G, S32A, A35V, N36S counted along it
T6 sequence (P08025 49-118 limits assumed): as the sequence (P05017 49-118 limits assumed) above, with A69S counted along it
T3 sequence (P09535 25-91 limits assumed): as the sequence (P01346 25-91 limits assumed) above, with R3G, S5G counted along it

B1: 60814: human IgG1 anti-IGF antibody; SEQ ID NO:35 (heavy chain) and SEQ ID NO:36 (light chain) (antibody, listed as Homo sapiens)
heavy: QVELVESGGGLVQPGGSLRLSCAASGFTFSNYWMHWVRQAPGKGLEWVSGISGWSSWTYYADSVKGRFTISRDNSKNTLYLQMNSLRAEDTAVYYCARFGIDAYTKVYFDYWGQGTLVTVSS[human IgG1 constant region not printed]
light: DIELTQPPSVSVAPGQTARISCSGDNIPLKYVSWYQQKPGQAPVLVIHDDNKRPSGIPERFSGSNSGNTATLTISGTQAEDEADYYCSSWDTLDIFNVFGGGTKLTVLGQPKAAPSVTLFPPSSEELQANKATLVCLISDFYPGAVTVAWKGDSSPVKAGVETTTPSKQSNNKYAASSYLSLTPEQWKSHRSYSCQVTHEGSTVEKTVAPTECS
In the case of B1, in [1], the “binding to rat IGF-2” value is “comparable cross-reactive binding”. The “reactivity to human insulin” value in experiment [2] is “no reactivity”. Besides, the “binding to murine IGF-2” value in experiment [3] is given as “comparable cross-reactive binding”. Moreover, in experiment [4], the “binding to human IGF-2” value is “comparable cross-reactive binding”. In experiment [5], the “binding to mouse IGF-1” value was “comparable cross-reactive binding”. In experiment [6], the “binding to rat IGF-1” value is “comparable cross-reactive binding”.

B2: 60819: human IgG1 anti-IGF antibody; SEQ ID NO:37 (heavy chain) and SEQ ID NO:38 (light chain) (antibody, listed as Homo sapiens)
heavy: QVELVESGGGLVQPGGSLRLSCAASGFTFSNYWMHWVRQAPGKGLEWVSGISGWSSWTYYADSVKGRFTISRDNSKNTLYLQMNSLRAEDTAVYYCARFGIDAYTKVYFDYWGQGTLVTVSS[human IgG1 constant region not printed]
light: DIELTQPPSVSVAPGQTARISCSGDNIPLKYVSWYQQKPGQAPVLVIHDDNKRPSGIPERFSGSNSGNTATLTISGTQAEDEADYYCQSYDYFPKFVVFGGGTKLTVLGQPKAAPSVTLFPPSSEELQANKATLVCLISDFYPGAVTVAWKGDSSPVKAGVETTTPSKQSNNKYAASSYLSLTPEQWKSHRSYSCQVTHEGSTVEKTVAPTECS
B2: the “effect on total levels of PTEN” value in [7] is listed as “do not affect the total levels of PTEN”. For the same molecule, the “binding to rat IGF-2” value in experiment [1] is “comparable cross-reactive binding”. Moreover, the “effect on phosphorylation of AKT” value in [8] is “inhibited AKT phosphorylation”. Further, the “reactivity to human insulin” value in [2] is “no reactivity”. Besides, in experiment [3], the “binding to murine IGF-2” value is given as “comparable cross-reactive binding”. Besides, the “effect on serum total murine IGF-1 levels” value in [9] was “dose dependent elevation”. Moreover, in experiment [4], the “binding to human IGF-2” value is “comparable cross-reactive binding”. Moreover, in experiment [5], the “binding to mouse IGF-1” value is “comparable cross-reactive binding”. Moreover, the “effect on serum total rat IGF-1 levels” value in [10] was “dose dependent elevation”. In addition, in experiment [6], the “binding to rat IGF-1” value was “comparable cross-reactive binding”.
